Data as given in the supplement of paper PMC5919970.
Counter-ions that a name gives are not always drawn. Whole data set: some 2,000 compounds, median “fractional viability relative to vehicle” near 0.91, cut for the lowest 2% near 0.045. This is one part of the list.

System: TYKNU
Assay: fractional viability relative to vehicle; TYKNU is a high-grade serous ovarian cancer line; higher = less growth inhibition
Details: 72 h
Procedure, shortened: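 TYKNU control cells or lentiCRISPRv2 knockout derivatives were plated at 500 cells per well in duplicate into drug-stamped 384-well plates holding a ~2100-compound library at 2 or 10 μM. Culture was in RPMI 1640 with 10% FBS at 37 °C in 5% CO2, with 72 h of drug treatment. Viability was measured by Cell Titer Glo luminescence, and the averaged duplicate treatment wells were normalised to duplicate control wells at the same plate position.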

[1] = 2uM, genotype: DNM1L knockout (sgDNM1L #1)
[2] = 2uM, genotype: sgCTRLA1 (non-targeting control)
[3] = 10uM, genotype: DNM1L knockout (sgDNM1L #1)
[4] = 10uM, genotype: sgCTRLA1 (non-targeting control)

Row | Structure (SMILES) | fractional viability [1] | fractional viability [2] | fractional viability [3] | fractional viability [4]
1 | Oc1cc(O)cc(/C=C/c2ccc(O)c(O)c2)c1 [Piceatannol] | 1.01 | 1.07 | 0.589 | 0.821
2 | O=C(NC1CC1)c1cc(-c2cccs2)on1 [Isoxazole 9 (ISX-9)] | 0.927 | 0.844 | 0.795 | 0.662
3 | Nc1nc(=O)[nH]cc1F [Flucytosine] | 1.06 | 1.06 | 1.06 | 0.991
4 | CN1CCN(c2ccc(Nc3cc(-c4cccc(-n5ccc6cc(C7CC7)cc(F)c6c5=O)c4CO)cn(C)c3=O)nc2)CC1 | 0.836 | 0.97 | 0.114 | 0.182
5 | CC(=O)O[C@]1(C(C)=O)CC[C@H]2[C@@H]3C=C(C)C4=CC(=O)CC[C@]4(C)[C@H]3CC[C@@]21C [Megestrol Acetate] | 0.975 | 1.17 | 0.874 | 1.01
6 | C=C1[C@H](CO)[C@@H](O)C[C@@H]1n1cnc2c(=O)[nH]c(N)nc21 [Entecavir Hydrate] | 1.02 | 1.04 | 0.912 | 0.909
7 | CN(C)C(=O)c1cc2cnc(Nc3ccc(N4CCNCC4)cn3)nc2n1C1CCCC1 | 0.781 | 0.904 | 0.6 | 0.592
8 | S=c1[nH]cnc2nc[nH]c12 [Mercaptopurine (6-MP)] | 0.933 | 0.546 | 0.866 | 0.665
9 | NS(=O)(=O)c1ccc(NC(=O)Nc2ccc(F)cc2)cc1 | 0.947 | 1.08 | 0.768 | 1.08
10 | Cc1cccc(-c2[nH]ncc2-c2ccc3ncccc3n2)n1 | 0.98 | 1.1 | 0.778 | 1.03
11 | O=C(NCCCNc1nc(Nc2cccc(NC(=O)N3CCCC3)c2)ncc1I)c1cccs1 | 0.95 | 0.92 | 0.196 | 0.279
12 | CN(Cc1ccc(C(C)(C)C)cc1)Cc1cccc2ccccc12 [Butenafine HCl] | 1.07 | 1.2 | 0.757 | 1.1
13 | O=C(NNc1ccccc1)c1ccncc1 | 0.723 | 0.931 | 0.801 | 0.659
14 | Cc1nc2c(O)cccc2c(=O)[nH]1 | 0.9 | 0.902 | 0.954 | 0.856
15 | CC(C)n1cnc2c(NCCc3ccc(O)cc3)nc(-c3csc4ccccc34)nc21 [StemRegenin 1 (SR1)] | 0.807 | 1.02 | 0.448 | 0.697
16 | Cc1cc(F)c(Nc2ncnc3cc(OCc4ccccc4)ccc23)cc1O | 1.3 | 1.2 | 0.725 | 0.596
17 | O=c1[nH]c(=O)n([C@H]2C[C@H](O)[C@@H](CO)O2)cc1C(F)(F)F [Trifluridine] | 0.869 | 0.969 | 0.437 | 0.386
18 | Cn1cncc1[C@@](N)(c1ccc(Cl)cc1)c1ccc2c(c1)c(-c1cccc(Cl)c1)cc(=O)n2C [Tipifarnib] | 0.472 | 0.64 | 0.272 | 0.366
19 | Cc1cc(C#N)cc(C)c1Oc1nc(Nc2ccc(C#N)cc2)nc(N)c1Br [Etravirine (TMC125)] | 1.05 | 1.06 | 0.352 | 0.41
20 | NC(=O)N1c2ccccc2CC(=O)c2ccccc21 [Oxcarbazepine] | 1.03 | 1.03 | 0.734 | 0.93
21 | NC1=NCC2c3ccccc3Cc3ccccc3N12 (stereo not drawn) [Epinastine HCl] | 0.782 | 0.97 | 0.686 | 0.857

Row | Structure (SMILES) | fractional viability [1] | fractional viability [2] | fractional viability [3] | fractional viability [4]
22 | Oc1nc(-c2ccc(C(F)(F)F)cc2)nc2c1CSCC2 | 1.05 | 1.19 | 0.45 | 0.746
23 | Cc1nc2ccc(NC(=O)Nc3ccnc4cccnc34)cc2o1 | 0.722 | 0.924 | 0.803 | 0.767
24 | CN(C)c1ccc(-c2nc3ncc(Cl)c(N4CCN(CC(=O)Nc5nccs5)CC4)c3[nH]2)cc1 | 1.15 | 0.937 | 0.395 | 0.714
25 | O=C1N=C(O)NC1(c1ccccc1)c1ccccc1 [Phenytoin sodium] | 1.03 | 1.09 | 0.864 | 1.04
26 | O=C1Nc2ccc(I)cc2/C1=C/c1cc(Br)c(O)c(Br)c1 | 0.939 | 1.07 | 0.891 | 0.926
27 | CN(C)c1cc(NC(=O)CNC(C)(C)C)c(O)c2c1C[C@H]1C[C@H]3[C@H](N(C)C)C(O)=C(C(N)=O)C(=O)[C@@]3(O)C(O)=C1C2=O [Tigecycline] | 0.988 | 1.28 | 0.927 | 1.08
28 | CCNc1nc(Nc2cc(F)c(C(=O)N3CCOCC3)cc2OC)ncc1C(F)(F)F | 0.839 | 0.914 | 0.522 | 0.542
29 | COc1cc(NS(=O)(=O)c2ccc(N)cc2)nc(OC)n1 [Sulphadimethoxine] | 1.27 | 1.1 | 0.921 | 1.02
30 | CC1(C)O[C@@H]2[C@@H](CO[C@@]3(COS(N)(=O)=O)OC(C)(C)O[C@@H]23)O1 [Topiramate] | 1.02 | 1.28 | 0.982 | 1.23
31 | O=C(c1ccc(F)cc1)N1CCC[C@H](c2nc(-c3ccc(F)cc3)no2)C1 | 1.02 | 1.14 | 0.634 | 1.06
32 | Cc1ccc(Cl)cc1N(CC(=O)Nc1c(F)cccc1F)S(C)(=O)=O | 0.71 | 0.883 | 0.706 | 0.794
33 | Cc1c(NC(=O)OC[C@@H]2COCCN2)cn2ncnc(Nc3ccc4c(cnn4Cc4cccc(F)c4)c3)c12 | 0.969 | 1.04 | 0.516 | 0.387
34 | Cc1ccc2nc(NCCN)c3ncc(C)n3c2c1 | 0.759 | 0.94 | 0.176 | 0.133
35 | COc1ccc(C[C@H](NC(=O)[C@H](C)NC(=O)CN2CCOCC2)C(=O)N[C@@H](Cc2ccccc2)C(=O)[C@@]2(C)CO2)cc1 | 0.0589 | 0.0514 | 0.0565 | 0.0416
36 | CC(C[N+](C)(C)C)OC(N)=O (stereo not drawn) [Bethanechol chloride] | 1.01 | 1.03 | 0.817 | 1.14
37 | NS(=O)(=O)Cc1noc2ccccc12 [Zonisamide] | 1.1 | 1.04 | 0.981 | 1.02
38 | COc1ccc2c(c1)C(=O)N(CCc1ccc(S(=O)(=O)NC(=O)NC3CCCCC3)cc1)C(=O)C2(C)C [Gliquidone] | 1.1 | 1.08 | 0.816 | 1
39 | C=CCc1ccc(O)c(-c2cc(CC=C)ccc2O)c1 [Magnolol] | 1.03 | 1.09 | 0.882 | 1.01
40 | Cc1cn([C@H]2C[C@H](N=[N+]=[N-])[C@@H](CO)O2)c(=O)[nH]c1=O [Zidovudine] | 0.952 | 1.08 | 0.851 | 0.907
41 | COc1ccc([C@@H]2Sc3ccccc3N(CCN(C)C)C(=O)[C@@H]2OC(C)=O)cc1 [Diltiazem HCl] | 0.98 | 1.15 | 0.814 | 1.13
42 | CC(=O)c1cc([N+](=O)[O-])c(Sc2ccc(F)cc2F)s1 | 1.02 | 1.12 | 0.288 | 0.5

Row | Structure (SMILES) | fractional viability [1] | fractional viability [2] | fractional viability [3] | fractional viability [4]
43 | CCNC(=O)c1noc(-c2cc(C(C)C)c(O)cc2O)c1-c1ccc(CN2CCOCC2)cc1 | 0.279 | 0.236 | 0.273 | 0.233
44 | CC(=O)C1=C(O)C=C2Oc3c(C(C)=O)c(O)c(C)c(O)c3C2(C)C1=O (single isomer, unassigned; (+)) [(+)-Usniacin] | 1.07 | 1.14 | 0.984 | 1.17
45 | CNCc1ccc(-c2[nH]c3cc(F)cc4c3c2CCNC4=O)cc1 | 0.971 | 1.05 | 0.928 | 1.02
46 | CCCNC(C)C(=O)Nc1c(C)csc1C(=O)OC (stereo not drawn) [Articaine HCl] | 1.06 | 1.01 | 0.891 | 1.02
47 | COc1ccc(CCc2nc3cc(-c4c(C)noc4C)ccc3n2C[C@H](C)N2CCOCC2)cc1Cl | 0.663 | 1.08 | 0.45 | 0.701
48 | O=C(O)c1cc2cccc([N+](=O)[O-])c2[nH]1 | 0.859 | 1.09 | 0.957 | 0.802
49 | O=C(O)c1ccc(-n2nc(-c3ccccc3O)nc2-c2ccccc2O)cc1 [Deferasirox] | 0.891 | 0.964 | 0.445 | 0.433
50 | NCCS [Cysteamine HCl] | 0.825 | 1.09 | 0.739 | 1.1
51 | COCCOC(=O)C1=C(C)NC(C)=C(C(=O)OC(C)C)C1c1cccc([N+](=O)[O-])c1 (stereo not drawn) [Nimodipine] | 0.892 | 1.1 | 0.799 | 1.01
52 | COc1c(C)c2c(c(O)c1C/C=C(\C)CCC(=O)OCCN1CCOCC1)C(=O)OC2 [Mycophenolate Mofetil] | 0.405 | 0.466 | 0.293 | 0.233
53 | CN1C(C(=O)Nc2ccccn2)=C(O)c2ccccc2S1(=O)=O [Piroxicam] | 0.997 | 1.12 | 1.11 | 0.993
54 | O=C(NCc1cccc(O)c1)Nc1nc(-c2ccncc2)cs1 | 0.821 | 1.08 | 0.688 | 0.914
55 | COC(=O)CCc1ccc(OCC(O)CNC(C)C)cc1 (stereo not drawn) [Esmolol HCl] | 0.975 | 1.09 | 0.829 | 1.07
56 | CC1(C)CC(=O)c2c(C(F)(F)F)nn(-c3ccc(C(N)=O)c(N[C@H]4CC[C@H](OC(=O)CN)CC4)c3)c2C1 | 0.976 | 1.16 | 0.981 | 1.09
57 | CC1(C)[C@@H](O)CC[C@]2(C)[C@H]3C(=O)C=C4[C@@H]5C[C@@](C)(C(=O)O)CC[C@]5(C)CC[C@@]4(C)[C@]3(C)CC[C@@H]12 [Enoxolone] | 0.93 | 1.05 | 0.839 | 0.924
58 | C[C@H]1COC2(CCN(c3nc(=O)c4cc(C(F)(F)F)cc([N+](=O)[O-])c4s3)CC2)O1 (racemic) [BTZ043 Racemate] | 1.15 | 1.05 | 1.08 | 0.947
59 | Oc1ccc(Cc2nc3c(Cc4ccccc4)nc(-c4ccc(O)cc4)cn3c2O)cc1 [Coelenterazine] | 0.928 | 1.05 | 0.977 | 0.839
60 | O=C(O)C[C@H](O)C[C@H](O)/C=C/c1c(C2CC2)nc2ccccc2c1-c1ccc(F)cc1 [Pitavastatin Calcium] | 0.329 | 0.391 | 0.182 | 0.216
61 | Cc1ccc(C)c(OCCCC(C)(C)C(=O)O)c1 [Gemfibrozil] | 0.919 | 1.04 | 0.894 | 1.01
62 | O=C(CCCN1CCC(O)(c2ccc(Cl)cc2)CC1)c1ccc(F)cc1 [Haloperidol] | 1.09 | 1.27 | 0.762 | 0.871
